Source: PubChem BioAssay AID686978 (National Center for Advancing Translational Sciences (NCATS), 2013)
In all, about 420,000 compounds went through this assay and about 64,000 (15%) were called active. The shares of active, inactive and inconclusive entries below differ from those in the screen. Calls come from the whole dose curve; as a rule, active = well fitted inhibition curve with a large enough effect; inconclusive = small, poorly fitted or top-dose-only effect; inactive = flat fitted curve, though single readings scatter. No potency is given beside an inconclusive call; the fits are too rough.

test: qHTS for Inhibitors of human tyrosyl-DNA phosphodiesterase 1 (TDP1): qHTS in cells in absence of CPT; conditions: DT40 Tdp1-/- hTDP1 cells, no CPT, ATP luminescence, 48 h; activity change, negative = growth inhibition: at 46.2 µM (top of the series) unless noted; note: nearly all actives have a fitted effect of over 55% in size
Procedure, shortened: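 Cells were dispensed at 400 per well, compounds added by pin tool, plates incubated ≥48 hr at 37 °C, then CellTiter-Glo added for 30 min at room temperature before luminescence reading. Line: DT40 Tdp1-/- complemented with hTDP1; camptothecin omitted.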
% is set by controls: 0 for no effect and ±100 for the full control effect; potency is the fitted concentration of half-maximal effect; tags give direction and shape of the fitted curve.

SMILES | Potency | activity change, negative = growth inhibition
COn1c2c(c3c4nonc4ccc31)CCCC2 | inconclusive [inhibitor, partial curve] | 
Oc1ccccc1C=NC1CCCCC1N=Cc1ccccc1O (stereo not drawn) | inactive | 
Cc1ccc(N(c2ncnc(N)c2[N+](=O)[O-])C2CCCCC2)cc1 | inconclusive [inhibitor, partial curve] | 
CCN(CC)S(=O)(=O)c1ccc(S(=O)(=O)N(CC(=O)Nc2ccccc2)Cc2ccco2)cc1 | inconclusive [inhibitor, single point] | 
COc1ccc(CC(=O)NC2CC(=O)N(c3cccc(F)c3)C2)cc1OC (stereo not drawn) | inactive | 
Cc1cc(C)nc(/N=C(\N)Nc2cccc(OCc3ccccc3)c2)n1 | active: 11.6 µM | 
COc1ccc(C(=S)N2CCOCC2)cc1OC(=O)c1ccc(C)cc1 | inactive | 
CCC[n+]1c(C)sc2c(OC)ccc(OC)c21 | inconclusive [inhibitor, single point] | 
COc1ccc(C(=O)N/N=c2\oc3ccccc3cc2C(N)=O)cc1 | inconclusive [inhibitor, partial curve] | 
Cc1cccc(NC(=O)CSCC(=O)Nc2cc(C(F)(F)F)ccc2N2CCOCC2)c1 | inconclusive [inhibitor, partial curve, poor fit] | 
Cc1cccc(C(=O)NNC(=O)c2ccc(Br)cc2)c1 | inactive | 
Cc1nc2ccccn2c1C(=O)N/N=C/c1ccc2c(c1)OCO2 | inconclusive [inhibitor, single point] | 
CC(=O)Oc1oc(-c2ccccc2)nc1C=Nc1ccccc1 |  | inconclusive: -32.7% [inhibitor]
CCOC(=O)c1c(C)n(S(=O)(=O)c2ccc(C)cc2C)c2ccc(NS(=O)(=O)c3ccc(C)cc3C)cc12 | active: 20.6 µM | 
CCOC(=O)/C=C/c1ccc2c(c1)S(=O)(=O)N(Cc1ccc(OC)cc1)[C@H]2CC(=O)OCC | active: 12.6 µM | 
CC(=O)Nc1ccc(NS(=O)(=O)c2cc(-c3cnc(C4CC4)o3)ccc2C)cc1 | active: 2.31 µM | 
Cc1c(C(=O)OC2CCCCC2)[nH]c2c1C(=O)CC(C)(C)C2 | inconclusive [inhibitor, single point] | 
CCc1c(C)sc(NC(=O)CSc2nc3c(c(C(F)(F)F)n2)CCc2ccccc2-3)c1C#N | inconclusive [inhibitor, partial curve] | 
O=C(NCc1cccs1)c1noc2c1CCCC2 | inconclusive [inhibitor, single point] | 
C[C@]12CCC3C(CC[C@H]4CCCC[C@]34C)C1CC[C@@]2(O)CNCCO (stereo partly drawn) | inconclusive [inhibitor, single point] | 
CC(=O)Oc1ccc(C(=O)Cc2ccc3ccccc3n2)c(O)c1C | inactive | 
Cc1ccc(S(=O)(=O)N(C)C)cc1NC(=O)COC(=O)Cc1ccsc1 | inactive | 
CCCCCOC(=O)C1C(c2ccccc2)C(C(=O)O)C1c1ccccc1 (stereo not drawn) | inconclusive [inhibitor, partial curve, poor fit] | 
COc1ccc(-c2sc3cc4c(cc3c2-c2ccc3c(c2)OCCO3)OCO4)cc1 | inconclusive [inhibitor, single point] | 
Cc1cc(C(=O)N2CCCC(C(=O)c3cc(F)ccc3F)C2)c(C)o1 (stereo not drawn) | active: 18.4 µM | 

SMILES | Potency | activity change, negative = growth inhibition
O=C(Cc1c(Cl)cccc1Cl)OCC(=O)c1ccc[nH]1 | inconclusive [inhibitor, single point] | 
CSc1nc(C)c2c(n1)N(c1ccc(O)cc1)CC2 | inconclusive [inhibitor, single point] | 
CCOC(=O)[C@@H]1[C@H]2COc3ccccc3[C@@H]2N2C(=O)N(c3ccc(F)cc3)C(=O)[C@]12C | inactive | 
O=C(NC1C2CC3CC(C2)CC1C3)c1ccc(Br)o1 (stereo not drawn) | inactive | 
COc1cc(OC)c(OC)cc1/C=N/NC(=O)c1cnccn1 | inactive | 
O=C(CN(C(=O)CCC(=O)Nc1nccs1)c1cccc(F)c1)NCc1ccc2c(c1)OCO2 | inactive | 
CCCCCCCN1CCN=C1N(C)C | active: 16.4 µM | 
CC(=O)Nc1ccc2ccccc2c1 | inactive | 
COc1ccc(C)cc1S(=O)(=O)N1CCc2ccccc2C1 | inconclusive [inhibitor, single point] | 
CCN1CCN(C(=S)Nc2ccc3nc(N4CCN(C)CC4)cc(C)c3c2)CC1 | inconclusive [inhibitor, single point] | 
CCn1cc(C(=O)NCc2ccccc2OC)c(=O)c2cc(S(=O)(=O)N(C)C)ccc21 | inconclusive [inhibitor, single point] | 
CC1CCN(c2ccccc2NC(=O)c2ccc([N+](=O)[O-])o2)CC1 | inconclusive [inhibitor, single point] | 
COc1cc(C(=O)NCc2nnc(SCC(=O)N3CCCc4ccccc43)o2)cc(OC)c1OC | inactive | 
N#CC(c1ccncc1)(c1ncc(C(F)(F)F)cc1Cl)N1CCOCC1 (stereo not drawn) | inconclusive [inhibitor, single point] | 
CN(C(=O)CSc1nncn1-c1ccccc1)c1ccccc1 | inactive | 
COc1cc2c(cc1OC)CN(CCOc1ccc(Br)cc1)CC2 | inconclusive [inhibitor, partial curve, poor fit] | 
C[C@H]1COc2cc(N3CCSCC3)ccc2S(=O)(=O)N1 | inactive | 
COc1cc(CNc2nc3c(C)cc(C)cc3s2)ccc1O | active: 20.6 µM | 
O=c1oc2ccccc2cc1-c1nnc(Nc2ccc(Cl)cc2Cl)s1 | inconclusive [inhibitor, single point] | 
CN(C)C1=NC[C@H](Cc2ccccc2)N1CCc1ccc(F)cc1 | inactive | 
Cc1onc(-c2ccccc2)c1C(=O)N1CCN(S(=O)(=O)c2ccc(Cl)cc2)CC1 | inactive | 
CCCn1c2ccccc2c2cnn(CC(=O)NCc3ccccc3Cl)c(=O)c21 | inconclusive [inhibitor, single point] | 
O=C(NCc1ccc(Cl)cc1)c1ccc(COCC(F)(F)F)o1 | inconclusive [inhibitor, partial curve] | 
O=C(Nc1cccc(Cl)c1)c1ccc2nc(CCc3ccccc3)oc2c1 | inconclusive [inhibitor, single point] | 
C=CCn1c(C)cc(-c2csc(NC(=O)C3=COCCO3)n2)c1C | inconclusive [inhibitor, single point] | 

SMILES | Potency | activity change, negative = growth inhibition
CCN(CC)C(=O)CSc1nc2c(sc(=S)n2-c2ccccc2)c(=O)n1Cc1ccco1 | inconclusive [inhibitor, single point] | 
Cc1cccc(C(=O)NC(C)C(c2cccs2)N2CCOCC2)c1 (stereo not drawn) | inconclusive [inhibitor, single point] | 
CNC(=O)NC(=O)C(C)OC(=O)c1ccc(Cl)c(S(=O)(=O)Nc2ccc(F)cc2)c1 (stereo not drawn) | inconclusive [inhibitor, full curve, poor fit] | 
CS(=O)(=O)Nc1cccc(-c2ccc3ncnc(NCc4cccnc4)c3c2)c1 | inconclusive [inhibitor, single point] | 
Cc1ccc(-c2nc3cc(Cl)ccc3o2)cc1NC(=O)c1cc([N+](=O)[O-])ccc1N1CCOCC1 | inactive | 
COc1ccc(C2=CCC3CCCCN3C2)cc1OC (stereo not drawn) | inactive | 
COc1cccc(C2CC(=O)Nc3cc4c(cc32)OCO4)c1OC(C)C (stereo not drawn) | inconclusive [inhibitor, single point] | 
CCC(=O)N1CCc2cc(Br)cc(S(=O)(=O)N3CCC(C(=O)Nc4ccccc4CC)CC3)c21 | inconclusive [inhibitor, single point] | 
O=C1c2cc([N+](=O)[O-])ccc2-c2cc(Cl)c(NC(=O)C(F)(F)F)cc21 | inconclusive [inhibitor, partial curve] | 
Cc1ccc(S(=O)(=O)N2CCN(C(=O)C3CCN(C(=O)c4ccccc4C)CC3)CC2)cc1C | inconclusive [inhibitor, single point] | 
CCc1cc(C(=O)c2ccc(OC)cc2)c(NC(=O)CN2CCCCC2)s1 | inconclusive [inhibitor, single point] | 
CN(C)/C=C(\C#N)C(N)=C(C#N)C#N | inactive | 
CC(NCc1nc2ccccc2n1C)C12CC3CC(CC(C3)C1)C2 (stereo not drawn) | active: 23.1 µM | 
O=S(=O)(c1ccc(Cl)cc1)N1CCN(c2ncnc3sccc23)CC1 | active: 5.8 µM | 
CCN(C(=O)COC(=O)C(C)(C)Oc1ccc(Cl)cc1)c1c(N)n(Cc2ccccc2)c(=O)[nH]c1=O |  | inconclusive: -33.5% [inhibitor]
COCCn1c(-c2ccc3ccccc3c2)nc2c1c(=O)[nH]c(=O)n2CC(C)C | active: 23.1 µM | 
O=C(Nc1ccncc1)c1ccc(Br)cc1 | active: 5.17 µM | 
CCc1ccc2nc(Nc3ccc(OC)cc3OC)c(C#N)cc2c1 | inconclusive [inhibitor, full curve] | 
Cc1n[nH]c(C)c1C(=O)CC1(O)C(=O)N(CCc2ccccc2)c2ccc(Cl)cc21 (stereo not drawn) | active: 23.1 µM | 
COc1cc(/C=C/C(=O)OC(C)C(=O)NC2CCCCC2C)cc(Cl)c1OC (stereo not drawn) | inconclusive [inhibitor, single point] | 
CSc1nc2ccc3nc(NC(=O)c4ccc(C)cc4)sc3c2s1 |  | inconclusive: -32% [inhibitor]
CC1(C(=O)O)CCN1C(=O)c1cccc(C(F)(F)F)c1 (stereo not drawn) | inactive | 
COc1cc(OC)c(NC(=O)C2CCN(C(=O)c3sc4nc[nH]c(=O)c4c3C)CC2)cc1Cl | inactive | 
